Results taken from paper PMC4480820, “Modafinil and its metabolites enhance the anticonvulsant action of classical antiepileptic drugs in the mouse maximal electroshock-induced seizure model” (Psychopharmacology, 2015).

Tested on: threshold for electroconvulsions in mice
Test: Maximal electroshock seizure threshold (MEST) test
Settings: 30 min before electroconvulsions, ± S.E.M.

| SMILES | CS50 (median current strength producing tonic hind limb extension in 50 % of animals) (12.5 mg kg^−1 i.p.) [mA] | CS50 (median current strength producing tonic hind limb extension in 50 % of animals) (25 mg kg^−1 i.p.) [mA] | CS50 (median current strength producing tonic hind limb extension in 50 % of animals) (50 mg kg^−1 i.p.) [mA] | CS50 (median current strength producing tonic hind limb extension in 50 % of animals) (75 mg kg^−1 i.p.) [mA] | CS50 (median current strength producing tonic hind limb extension in 50 % of animals) (75 mg kg^−1 i.p., listed as modafinil) [mA] | CS50 (median current strength producing tonic hind limb extension in 50 % of animals) (6.25 mg kg^−1 i.p.) [mA] | CS50 (median current strength producing tonic hind limb extension in 50 % of animals) (50 mg kg^−1 i.p., listed as GBR 12909) [mA] | CS50 (median current strength producing tonic hind limb extension in 50 % of animals) (75 mg kg^−1 i.p., listed as acid metabolite) [mA] | CS50 (median current strength producing tonic hind limb extension in 50 % of animals) (75 mg kg^−1 i.p., listed as sulfone metabolite) [mA] |
| --- | --- | --- | --- | --- | --- | --- | --- | --- | --- |
| NC(=O)C[S+]([O-])C(c1ccccc1)c1ccccc1 (centres unmarked) [MOD, diphenylmethylsulfinylacetamide] | 5.95 ± 0.44 | 6.29 ± 0.48 | 7.52 ± 0.54 | 8.29 ± 0.48 | 8.29 ± 0.48 |  |  |  |  |
| Fc1ccc(C(OCCN2CCN(CCCc3ccccc3)CC2)c2ccc(F)cc2)cc1 [GBR] | 7.52 ± 0.55 | 7.93 ± 0.62 | 9.12 ± 0.45 |  |  | 7.02 ± 0.48 | 9.12 ± 0.45 |  |  |
| O=C(O)CSC(c1ccccc1)c1ccccc1 [ACID, diphenylmethylthioacetic acid] | 6.42 ± 0.50 | 6.96 ± 0.48 | 7.67 ± 0.72 | 8.98 ± 0.45 |  |  |  | 8.98 ± 0.45 |  |
| NC(=O)CS(=O)(=O)C(c1ccccc1)c1ccccc1 [SULF, diphenylmethylsufonylacetamide] | 6.50 ± 0.52 | 6.92 ± 0.40 | 7.53 ± 0.48 | 9.04 ± 0.47 |  |  |  |  | 9.04 ± 0.47 |
